# Test results taken from ChEMBL document CHEMBL4888484, “Replenishing the malaria drug discovery pipeline: Screening and hit evaluation of the MMV Hit Generation Library 1 (HGL1) against asexual blood stage Plasmodium falciparum ,using a nano luciferase reporter read-out” (2022).
# In all, about 150,000 compounds went through this assay and about 540 (0.36%) showed an effect of 50% or more. Some of the results follow.
# Tested on: Plasmodium falciparum
# Test: Primary screen in NF54 nanoGlo assay, in single point, at 2uM, 72h; a lower Z score goes with more inhibition
# Assay type: functional, Erythrocyte
# Conditions: timepoint 72 hour
SMILES,% Inhibition,Z score
Cc1cccc2c1CC(C)(C)N(C(=O)Cc1ccc(C(N)=O)cc1)C2,-2%,0.4
Cc1ccc(C(=O)N2CC[C@H]3[C@@H](C2)NC(=O)N3C)c(C)c1,4%,-0.62
CCNC(=O)C[C@H]1CCCCN1C(=O)C1CCN(Cc2csc(C)n2)CC1,42%,-1.59
COc1ccccc1CN1C(=O)c2cc3occc3n2C[C@@]1(C)C(=O)NC1CCC(C)CC1 (some centres undefined),-18%,3.16
CCc1c(C)nn(C)c1NC(=O)CCn1nnnc1C,-2%,0.15
Cc1nn(C)cc1CN1CCC[C@H](c2nncn2C(C)C)C1,-7%,0.71
Cc1sc(S(=O)(=O)N2CCCCCC2)cc1NC(=O)c1cccc(C(F)(F)F)c1,0%,0.02
CCc1cccc(NC(=O)CN(CC)CC#N)c1,-4%,0.65
O=C(CN1C(=O)N[C@]2(CCc3ccccc3C2)C1=O)NC1CC1,-10%,1.85
COc1cccc(F)c1C(=O)N[C@H]1CC[C@@H]2CCC[C@@H]21,-18%,1.8
COc1cc(Cn2ccnc2-c2cnc(N)nc2)cc(OC)c1OC,14%,-1.77
CCc1nc(C2CC2)nc(N2CCN(C(=O)c3cccs3)CC2)c1Cc1cccc(Cl)c1,-4%,0.48
O=C(C1CCN(C2CCN(CCCC3CCCC3)CC2)CC1)N1CCOCC1,-1%,0.15
CS(=O)(=O)Cc1cc(F)ccc1N,0%,-0.04
O=C1[C@@H]2CCCCN2C(=O)N1c1c(F)cccc1F,-1%,0.1
O=C(Cn1cc([C@@H](O)C2CC2)nn1)C1(c2ccccc2)CC1,-5%,0.86
CCc1ncc(CN[C@H]2CCCc3nc(N4CCC(CO)CC4)ncc32)cn1,-11%,1.66
O=C(NC1CCN2CCCCC12)c1cccc(F)c1 (centres undefined),-8%,1.02
Cn1ccc(CCNS(=O)(=O)C2CCC(c3ccccc3)CC2)n1 (centres undefined),-8%,1.03
CCC(C)(C)N(C)C(=O)c1ccccc1Cl,31%,-4.21
O=C(CCC1CCCCC1)Nc1ccc2c(c1)OCO2,-7%,1.07

SMILES,% Inhibition,Z score
COc1cc2c(cc1OC)CN(C(=O)COc1nnc3ccccn13)CC2,-2%,0.17
O=C(Nc1ccc(O)cc1)Nc1cccc(-c2ncco2)c1,5%,-0.61
CN1CCC2(CC1)CC(=O)N(Cc1ccc(F)c(F)c1)C2,-18%,1.68
O=c1[nH]c(-c2ccccc2)nc2c1CCCC2,-2%,0.23
COc1cccc(OCc2nc(C3CCOCC3)n(C3CCCCC3)n2)c1,-5%,0.52
CC(C)Cc1cn(C2CCN(C3CCCCCC3)CC2)nn1,-4%,0.76
CS(=O)(=O)N(CCOCC(F)(F)F)c1ccc(Cl)cc1F,0%,-0.01
COC(=O)C1=C(C(=O)OC)SC(=C2C(=S)C(C)(C)N(C(=O)CN3C(=O)CCC3=O)c3cc(OC)ccc32)S1,6%,-0.71
Cc1cccc(C(=O)NC[C@H]2CCN(c3cnn(C)c(=O)c3)C2)c1O,1%,-0.14
CCN(CC)CCCNC(=O)c1ccc2ccnc(N3CCN(c4ccccc4F)CC3)c2c1,-2%,0.21
CCCN1C[C@@H]2CC[C@H]1CN(Cc1c[nH]nc1-c1cccc(F)c1)C2,1%,-0.17
CC1CC(NCc2cnc(C3CC3)nc2)C1 (centres undefined),-6%,0.61
O=C(N1CCCC1)C1(F)CCN(Cc2cccnc2)CC1,-11%,1.38
Cc1nn(C)c2nc(O[C@@H](C)C(=O)NC3CC3)cc(C(F)(F)F)c12,-8%,0.86
Cn1cc([C@@](C)(O)CNc2nccnc2C#N)cn1,8%,-1.15
CCN(C(=O)c1ccoc1C)c1ccccc1C,-5%,0.62
O=C(NCCCN1CCCC1)c1ccc(CN2C(=O)CCn3nc(-c4cccc(Cl)c4)cc32)cc1,32%,-3.75
CN(C)[C@@H](CNS(=O)(=O)N(C)C)c1ccc(Cl)cc1,-2%,0.22
O=C(Nc1nnc2ccccn12)[C@H]1CC(=O)N(Cc2cccc(C(F)(F)F)c2)C1,-7%,0.96
CCOc1ccc(C(=O)N2CCN=C2N2CCC(C)CC2)cc1,-11%,1.03
CC(C)(C)OC(=O)NOC(C)(C)COC(=O)C[C@@H]1COC(=O)C1,1%,-0.11
